From US20200325209A1 (CSL, published 2020)
Each block holds one binder with its values, some of them ahead of it.

Experiments:
[1] = target: T1, human neonatal Fc receptor FcRn/β2m, soluble recombinant (human, UniProt P55899 part only; P61769 part only, alexa-488 label (Examples 2-4); minimal chemical biotinylation with Sulfo-NHS-LC-LC-Biotin (Examples 5-6)); assay: flow cytometry, labelled FcRn on CHO-displayed HSA, pH 7.4
T1 construct: Heterodimer; extracellular domain is inferred; also called hFcRn/β2M; hsFcRn

[2] = target: T1, human neonatal Fc receptor FcRn/β2m, …; assay: flow cytometry, labelled FcRn on CHO-displayed HSA, pH 5.5
[3] = target: T2, cynomolgus monkey FcRn/β2m, soluble recombinant (cynomolgus monkey, UniProt Q8SPV9 24-297; Q8SPW0 21-119); assay: SPR, FcRn over immobilised HSA, pH 6.0, 1:1 model
T2 construct: Extracellular domain inferred from 'soluble'; also called cynoFcRn; cyno FcRn/β2m
Method: (§1) Spot 3 of each flow cell was activated/deactivated and used for reference subtraction. The flow rate of FcRn/β2m was kept constant at 30 μL/min
(§2) A concentration range of 2 to 0.007 μM (pH6.0) and 20 to 0.078 μM (pH7.3) was used and association and dissociation phases were monitored for 180 and 600 seconds respectively.
(§3) Regeneration of the surface was performed as previously described.

[4] = target: T1, human neonatal Fc receptor FcRn/β2m, …; assay: SPR, FcRn over immobilised HSA, pH 6.0, 1:1 model
Method: as §1, §2, §3

[5] = target: T3, mouse FcRn/β2m, soluble recombinant (mouse, UniProt Q61559 22-297; P01887 21-119); assay: SPR, FcRn over immobilised HSA, pH 6.0
T3 construct: Extracellular domain inferred from 'soluble'; also called murineFcRn; murine FcRn/β2m
T3 sequence (looked up): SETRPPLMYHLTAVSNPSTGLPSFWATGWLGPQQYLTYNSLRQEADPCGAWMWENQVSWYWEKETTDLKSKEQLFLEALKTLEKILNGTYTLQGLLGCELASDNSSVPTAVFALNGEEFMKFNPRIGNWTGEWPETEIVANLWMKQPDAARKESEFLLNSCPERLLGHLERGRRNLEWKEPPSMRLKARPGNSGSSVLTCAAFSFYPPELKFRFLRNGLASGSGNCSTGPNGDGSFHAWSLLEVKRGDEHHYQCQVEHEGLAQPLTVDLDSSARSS
T3 sequence (b2m, looked up): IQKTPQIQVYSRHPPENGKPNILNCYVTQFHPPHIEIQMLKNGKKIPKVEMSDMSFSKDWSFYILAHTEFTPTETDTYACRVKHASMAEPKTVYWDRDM

[6] = target: T1, human neonatal Fc receptor FcRn/β2m, …; assay: SPR Biacore 4000, HSA over biotinylated hFcRn/β2M on streptavidin chip, pH 6.0, 37 C
[7] = target: T1, human neonatal Fc receptor FcRn/β2m, …; assay: SPR Biacore 8000, HSA over biotinylated hFcRn/β2M on streptavidin chip, pH 6.0, 37 C
[8] = target: T2, cynomolgus monkey FcRn/β2m, soluble …; assay: SPR, FcRn over immobilised HSA, pH 7.3, steady state
Method: as §1, §2, §3

[9] = target: T1, human neonatal Fc receptor FcRn/β2m, …; assay: as above
Method: as §1, §2, §3

[10] = target: T4, rat FcRn/β2m, soluble recombinant (rat, UniProt P13599 23-298; P07151 21-119); assay: SPR, FcRn over immobilised HSA, pH 6.0, 1:1 model; pH 6.0
T4 construct: Extracellular domain inferred from 'soluble'
T4 sequence (looked up): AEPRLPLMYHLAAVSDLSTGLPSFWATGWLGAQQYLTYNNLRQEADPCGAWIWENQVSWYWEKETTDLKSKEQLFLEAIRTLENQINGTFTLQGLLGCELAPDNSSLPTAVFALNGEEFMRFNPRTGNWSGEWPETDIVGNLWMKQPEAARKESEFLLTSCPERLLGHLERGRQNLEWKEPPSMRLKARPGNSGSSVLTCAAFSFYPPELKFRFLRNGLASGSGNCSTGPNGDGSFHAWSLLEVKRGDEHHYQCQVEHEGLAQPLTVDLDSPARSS
T4 sequence (b2m, looked up): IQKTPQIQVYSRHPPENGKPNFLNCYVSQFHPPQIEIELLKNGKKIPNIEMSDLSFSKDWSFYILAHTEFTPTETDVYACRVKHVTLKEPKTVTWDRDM
Method: as §1, §2, §3

[11] = target: T1, human neonatal Fc receptor FcRn/β2m, …; assay: flow cytometry, labelled FcRn on CHO-displayed HSA, pH 7.3
Source text: (§4) Background fluorescence due to non-specific binding of the labelled FcRn to the cells was subtracted from the value obtained.

[12] = target: T1, human neonatal Fc receptor FcRn/β2m, …; assay: flow cytometry, labelled FcRn on CHO-displayed HSA, pH 5.4
Source text: as §4

[13] = target: T1, human neonatal Fc receptor FcRn/β2m, …; assay: flow cytometry, labelled FcRn on CHO-displayed HSA, pH 7.4; remark: listed apart in the source
[14] = target: T1, human neonatal Fc receptor FcRn/β2m, …; assay: flow cytometry, labelled FcRn on CHO-displayed HSA, pH 5.5; remark: listed apart in the source

T2 sequence (Q8SPV9 24-297 limits assumed, chain 1 of 2): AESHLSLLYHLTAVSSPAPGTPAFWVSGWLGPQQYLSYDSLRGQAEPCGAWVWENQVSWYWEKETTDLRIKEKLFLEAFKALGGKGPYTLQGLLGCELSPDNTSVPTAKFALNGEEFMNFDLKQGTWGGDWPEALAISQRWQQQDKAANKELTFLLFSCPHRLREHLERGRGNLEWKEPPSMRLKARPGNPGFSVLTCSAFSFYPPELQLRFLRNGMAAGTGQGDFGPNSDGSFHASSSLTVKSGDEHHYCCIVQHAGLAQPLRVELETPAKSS
T2 sequence (Q8SPW0 21-119 limits assumed, chain 2 of 2, further chain): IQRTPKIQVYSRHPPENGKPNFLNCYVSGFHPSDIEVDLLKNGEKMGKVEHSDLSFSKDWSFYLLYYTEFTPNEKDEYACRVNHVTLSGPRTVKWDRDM

B1: HSA [Q522L/A552V/G572R/K573Y], membrane-tethered on CHO cells (other)
chain: DAHKSEVAHRFKDLGEENFKALVLIAFAQYLQQCPFEDHVKLVNEVTEFAKTCVADESAENCDKSLHTLFGDKLCTVATLRETYGEMADCCAKQEPERNECFLQHKDDNPNLPRLVRPEVDVMCTAFHDNEETFLKKYLYEIARRHPYFYAPELLFFAKRYKAAFTECCQAADKAACLLPKLDELR[gap - about 200 residues]NLIKQNCELFEQLGEYKFQNALLVRYTKKVPQVSTPTLVEVSRNLGKVGSKCCKHPEAKRMPCAEDYLSVVLNQLCVLHEKTPVSDRVTKCCTESLVNRRPCFSALEVDETYVPKEFNAETFTFHADICTLSEKERLIKKQTALVELVKHKPKATKEQLKAVMDDFVAFVEKCCKADDKETCFAEERYKLVAASQAALGL
notes: also called quadruple HSA variant; not shown: Myc tag and PDGFR transmembrane domain
fold change to WT [1]: 8.3 fold | mean geoMFI [1]: 329 | fold change to WT [2]: 440 fold | mean geoMFI [2]: 70100

B2: HSA [Q522L/A552V/G572R], soluble (other)
chain: DAHKSEVAHRFKDLGEENFKALVLIAFAQYLQQCPFEDHVKLVNEVTEFAKTCVADESAENCDKSLHTLFGDKLCTVATLRETYGEMADCCAKQEPERNECFLQHKDDNPNLPRLVRPEVDVMCTAFHDNEETFLKKYLYEIARRHPYFYAPELLFFAKRYKAAFTECCQAADKAACLLPKLDELR[gap - about 200 residues]NLIKQNCELFEQLGEYKFQNALLVRYTKKVPQVSTPTLVEVSRNLGKVGSKCCKHPEAKRMPCAEDYLSVVLNQLCVLHEKTPVSDRVTKCCTESLVNRRPCFSALEVDETYVPKEFNAETFTFHADICTLSEKERLIKKQTALVELVKHKPKATKEQLKAVMDDFVAFVEKCCKADDKETCFAEERKKLVAASQAALGL
notes: also called triple HSA variant
Kd [3]: 24.5 nM | Kd [4]: 16.9 nM | binding result [5]: no binding (tested: 2 µM) | Kd [6]: 41 nM | koff [6]: 0.0014 s⁻¹ | kon [6]: 34200 M⁻¹ s⁻¹ | Kd [7]: 25 nM | koff [7]: 0.00176 s⁻¹ | kon [7]: 70100 M⁻¹ s⁻¹ | Kd [8]: 7600 nM | Kd [9]: 16100 nM | Kd [10]: 2250 nM

B5: HSA [Q522L/A552V/G572R], membrane-tethered on CHO cells (other)
chain: DAHKSEVAHRFKDLGEENFKALVLIAFAQYLQQCPFEDHVKLVNEVTEFAKTCVADESAENCDKSLHTLFGDKLCTVATLRETYGEMADCCAKQEPERNECFLQHKDDNPNLPRLVRPEVDVMCTAFHDNEETFLKKYLYEIARRHPYFYAPELLFFAKRYKAAFTECCQAADKAACLLPKLDELR[gap - about 200 residues]NLIKQNCELFEQLGEYKFQNALLVRYTKKVPQVSTPTLVEVSRNLGKVGSKCCKHPEAKRMPCAEDYLSVVLNQLCVLHEKTPVSDRVTKCCTESLVNRRPCFSALEVDETYVPKEFNAETFTFHADICTLSEKERLIKKQTALVELVKHKPKATKEQLKAVMDDFVAFVEKCCKADDKETCFAEERKKLVAASQAALGL
notes: also called Q522L/A522V/G572R; not shown: Myc tag and PDGFR transmembrane domain
fold change to WT [13]: 1.18 fold | mean geoMFI [13]: 46.8 | fold change to WT [14]: 409 fold | mean geoMFI [14]: 65200 | fold change to WT [1]: 1.18 fold | mean geoMFI [1]: 46.8 | fold change to WT [2]: 409 fold | mean geoMFI [2]: 65200

The remaining lines, values ahead:

fold change to WT [1]: 4.9 fold | mean geoMFI [1]: 194 | fold change to WT [2]: 394 fold | mean geoMFI [2]: 62800
B3: HSA [Q522L/G572R/K573Y], membrane-tethered on CHO cells (other)
chain: DAHKSEVAHRFKDLGEENFKALVLIAFAQYLQQCPFEDHVKLVNEVTEFAKTCVADESAENCDKSLHTLFGDKLCTVATLRETYGEMADCCAKQEPERNECFLQHKDDNPNLPRLVRPEVDVMCTAFHDNEETFLKKYLYEIARRHPYFYAPELLFFAKRYKAAFTECCQAADKAACLLPKLDELR[gap - about 200 residues]NLIKQNCELFEQLGEYKFQNALLVRYTKKVPQVSTPTLVEVSRNLGKVGSKCCKHPEAKRMPCAEDYLSVVLNQLCVLHEKTPVSDRVTKCCTESLVNRRPCFSALEVDETYVPKEFNAETFTFHADICTLSEKERLIKKQTALVELVKHKPKATKEQLKAVMDDFAAFVEKCCKADDKETCFAEERYKLVAASQAALGL
notes: not shown: Myc tag and PDGFR transmembrane domain

fold change to WT [11]: 3.3 fold | geoMFI [11]: 53.8 | fold change to WT [12]: 22.6 fold | geoMFI [12]: 37800
B4: HSA [T133I/Q522L/A552V/G572R], membrane-tethered on CHO cells (other)
chain: DAHKSEVAHRFKDLGEENFKALVLIAFAQYLQQCPFEDHVKLVNEVTEFAKTCVADESAENCDKSLHTLFGDKLCTVATLRETYGEMADCCAKQEPERNECFLQHKDDNPNLPRLVRPEVDVMCTAFHDNEEIFLKKYLYEIARRHPYFYAPELLFFAKRYKAAFTECCQAADKAACLLPKLDELR[gap - about 200 residues]NLIKQNCELFEQLGEYKFQNALLVRYTKKVPQVSTPTLVEVSRNLGKVGSKCCKHPEAKRMPCAEDYLSVVLNQLCVLHEKTPVSDRVTKCCTESLVNRRPCFSALEVDETYVPKEFNAETFTFHADICTLSEKERLIKKQTALVELVKHKPKATKEQLKAVMDDFVAFVEKCCKADDKETCFAEERKKLVAASQAALGL
notes: as for B3

fold change to WT [1]: 0.8 fold | mean geoMFI [1]: 31.9 | fold change to WT [2]: 651 fold | mean geoMFI [2]: 104000
B6: HSA [Q522L/A552V/K573Y], membrane-tethered on CHO cells (other)
chain: DAHKSEVAHRFKDLGEENFKALVLIAFAQYLQQCPFEDHVKLVNEVTEFAKTCVADESAENCDKSLHTLFGDKLCTVATLRETYGEMADCCAKQEPERNECFLQHKDDNPNLPRLVRPEVDVMCTAFHDNEETFLKKYLYEIARRHPYFYAPELLFFAKRYKAAFTECCQAADKAACLLPKLDELR[gap - about 200 residues]NLIKQNCELFEQLGEYKFQNALLVRYTKKVPQVSTPTLVEVSRNLGKVGSKCCKHPEAKRMPCAEDYLSVVLNQLCVLHEKTPVSDRVTKCCTESLVNRRPCFSALEVDETYVPKEFNAETFTFHADICTLSEKERLIKKQTALVELVKHKPKATKEQLKAVMDDFVAFVEKCCKADDKETCFAEEGYKLVAASQAALGL
notes: as for B3
